According to the supplement of paper PMC4967469:
By IC50 is meant the dose at which the fit gives 50% viability; fits outside the tested doses are given as limits. AUC sums up the same curve from the lowest dose to the 256-fold higher top dose: 1 means no effect, lower means more sensitive. For part of these data: An inferred top dose was calculated from the reported fits.

How the values were obtained:
Experiment in all cases: Viability of human cancer cell lines after 72 h of drug (GDSC screen)
[1] = compound: COc1cccc2cc(-c3nc([C@H]4CC[C@H](C(=O)O)CC4)n4ncnc(N)c34)[nH]c12 [OSI-027]; conditions: top dose 20 µM
Protocol: (§1)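 Human cancer cell lines in 384-well plates, medium with 10% serum, drug for 72 h over a 256-fold dose range (nine 2-fold or five 4-fold steps up to the top dose). Adherent lines were fixed and stained with the nucleic acid dye Syto60, suspension lines read with resazurin; signal relative to control wells, capped at 0 and 100%. One two-parameter sigmoid per drug and line, fitted in a mixed model over all curves with the slope shared within a line.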

[2] = compound: CCc1cc(-c2n[nH]c(C)c2-c2ccc3c(c2)OCCO3)c(O)cc1O [CCT018159]; conditions: top dose 10 µM; top dose inferred
Protocol: as §1

[3] = compound: Cc1cnc(Nc2ccc(OCCN3CCCC3)cc2)nc1Nc1cccc(S(=O)(=O)NC(C)(C)C)c1 [TG101348]; conditions: top dose 10.24 µM
Protocol: as §1

[4] = compound: COC(=O)CNC(=O)C(=O)OC [Dimethyloxalylglycine]; conditions: top dose 4000 µM; top dose inferred
Protocol: as §1

[5] = compound: CS(=O)(=O)c1ccc(C(=O)Nc2ccc(Cl)c(-c3ccccn3)c2)c(Cl)c1 [Vismodegib]; conditions: top dose 10 µM; top dose inferred
Protocol: as §1

[6] = compound: O=C(c1ccc(C(=O)N2CCC(N3CCCC3)CC2)c(Nc2ccccc2)c1)N1CCC(N2CCCC2)CC1 [UNC1215]; conditions: top dose 1 µM; top dose inferred
Protocol: as §1

[7] = compound: C=CCNC1=C2C[C@@H](C)C[C@H](OC)[C@H](O)[C@@H](C)/C=C(\C)[C@H](OC(N)=O)[C@@H](OC)/C=C\C=C(/C)C(=O)NC(=CC1=O)C2=O [17-AAG]; conditions: top dose 1 µM
Protocol: as §1

[8] = compound: Cc1cnc(Nc2ccc(F)cc2Cl)nc1-c1c[nH]c(C(=O)N[C@H](CO)c2cccc(Cl)c2)c1 [VX-11e]; conditions: top dose 5.12 µM; top dose inferred
Protocol: as §1

[9] = compound: CN(C)Cc1cccc(N=C(c2ccccc2)c2c(O)[nH]c3cc(C(=O)N(C)C)ccc23)c1 [BIX02189]; conditions: top dose 20 µM; top dose inferred
Protocol: as §1

Cell Line	AUC [1]	IC50 [1] [µM]	AUC [2]	IC50 [2] [µM]	AUC [3]	IC50 [3] [µM]	AUC [4]	IC50 [4] [µM]	AUC [5]	IC50 [5] [µM]	AUC [6]	IC50 [6] [µM]	AUC [7]	IC50 [7] [µM]	AUC [8]	IC50 [8] [µM]	AUC [9]	IC50 [9] [µM]
KASUMI-1 (acute myeloid leukaemia, suspension)	0.125	0.0785	0.742	3.09	0.276	0.147	0.393	127	0.956	> 10	0.938	> 1	–	–	–	–	–	–
KG-1 (acute myeloid leukaemia, suspension)	0.092	< 0.0781	0.924	> 10	0.44	0.446	0.333	90.7	–	–	0.98	> 1	0.99	> 1	0.931	> 5.12	0.603	2.32
M14 (melanoma, adherent)	0.987	> 20	0.975	> 10	0.987	> 10.2	0.809	2220	0.987	> 10	0.985	> 1	–	–	0.586	0.559	0.92	> 20
MCF7 (breast, adherent)	0.985	> 20	0.855	8.41	–	–	0.837	2810	0.986	> 10	0.984	> 1	–	–	0.986	> 5.12	0.986	> 20
MDA-MB-436 (breast, adherent)	0.948	> 20	0.974	> 10	0.984	> 10.2	0.699	1060	–	–	0.978	> 1	0.624	0.15	0.983	> 5.12	0.97	> 20
MKN45 (stomach, adherent)	0.697	5.24	0.917	> 10	0.951	> 10.2	0.851	> 4000	0.972	> 10	0.963	> 1	–	–	0.866	> 5.12	0.982	> 20
MM1S (myeloma, suspension)	–	–	0.957	> 10	–	–	–	–	0.986	> 10	–	–	0.973	> 1	–	–	–	–
MOLT-13 (T-cell lymphoblastic leukaemia, suspension)	0.263	0.292	0.979	> 10	0.509	0.673	–	–	–	–	0.984	> 1	0.99	> 1	0.781	1.86	0.897	19.5
NCI-H522 (lung adenocarcinoma, adherent)	0.954	> 20	0.926	> 10	0.943	> 10.2	0.474	209	–	–	0.982	> 1	0.797	0.575	0.977	> 5.12	0.968	> 20
NCI-H1105 (small cell lung carcinoma, suspension)	–	–	–	–	–	–	–	–	0.989	> 10	0.992	> 1	0.993	> 1	–	–	–	–
OCI-LY7 (B-cell lymphoma, suspension)	–	–	0.847	4.46	–	–	–	–	0.971	> 10	–	–	0.955	> 1	–	–	–	–
RERF-GC-1B (stomach, adherent)	0.729	6.11	0.978	> 10	0.575	1.05	0.567	389	–	–	0.983	> 1	0.98	> 1	0.853	4.73	0.886	> 20
RPMI-8226 (myeloma, suspension)	0.305	0.387	0.887	8.66	0.782	3.71	0.745	1120	0.927	> 10	0.985	> 1	–	–	0.941	> 5.12	0.933	> 20
SK-OV-3 (ovary, adherent)	0.466	0.983	0.94	> 10	0.671	2.18	0.615	562	0.981	> 10	0.979	> 1	–	–	0.964	> 5.12	0.93	> 20
THP-1 (acute myeloid leukaemia, suspension)	0.442	0.885	0.976	> 10	–	–	0.84	2370	–	–	0.988	> 1	0.93	> 1	0.919	> 5.12	0.923	> 20
U251 (glioma, adherent)	0.461	0.983	0.817	5.27	0.936	> 10.2	0.467	204	0.965	> 10	0.987	> 1	–	–	0.933	> 5.12	0.942	> 20
